Legend:
Test in all cases: cell-based or functional assay
β-klotho (KLB) = biological target: β-klotho (KLB)
human GLP-1R [1] = biological target: T1, human GLP-1R (human, UniProt P43220 24-463)
GCGR [2] = biological target: GCGR
human GLP-1R [3] = biological target: T1, human GLP-1R; remark: listed apart in the source
GCGR [4] = biological target: GCGR; remark: listed apart in the source

| FGF21 activity (EC50, nM) (β-klotho (KLB)) [nM] | EC50 (nM) GLP-1R (human GLP-1R [1]) [nM] | EC50 (nM) GCGR (GCGR [2]) [nM] | GLP-1 R agonist activity (EC50, nM) (human GLP-1R [3]) [nM] | GCGR agonist activity (EC50, nM) (GCGR [4]) [nM] | Binder |
| --- | --- | --- | --- | --- | --- |
| 0.48 | – | – | – | – | F9L5W (Fc fusion) [letters of human IgG1 Fc with changes omitted]GGGGAGGGGAGGGGAHPIPDSSPLLQFGGQVRQRYLYTDDAQQTEAHLEIREDGTVGGAADQSPESLLQLKALKPGVIQILGVKTSRFLCQRPDGALYGSLHFDPEACSFRELLLEDGYNVYQSEAHGLPLHLPGNKSPHRDPAPRGPARFLPLPGLPPALPEPPGILAPQPPDVGSSDPLSMVGPSQGRSPSYAS |
| – | 380 | 7.98 | – | – | A001L1F6 (Fc fusion) HSQGTFTSDYSKYLDSRRAQDFVQWLMNTGGGGSGGGGSGGGGSA[letters of human IgG4 Fc with S228P N297A (EU numbers) omitted] |
| – | 372 | 1.44 | – | – | G352L1F6 (Fc fusion) HSQGTFTSDYSKYLDSQAAQDFVQWLLAGGGGGSGGGGSGGGGSA[letters of human IgG4 Fc with S228P N297A (EU numbers) omitted] |
| – | 407 | 0.97 | – | – | G382L1F6 (Fc fusion) HSQGTFTSDYSKYLDSQAAQDFVQWLLDGGGGGSGGGGSGGGGSA[letters of human IgG4 Fc with S228P N297A (EU numbers) omitted] |
| – | 406 | 1.03 | – | – | G395L1F6 (Fc fusion) HSQGTFTSDYSKYLDEEAAQDFVQWLLAGGGGGSGGGGSGGGGSA[letters of human IgG4 Fc with S228P N297A (EU numbers) omitted] |
| – | 591 | 1.16 | – | – | G232L1F6 (Fc fusion) HSQGTFTSDYSKYLDEQAAQDFVQWLLAGGGGGSGGGGSGGGGSA[letters of human IgG4 Fc with S228P N297A (EU numbers) omitted] |
| – | 396 | 1.19 | – | – | G402L1F6 (Fc fusion) HSQGTFTSDYSKYLDEEAAQDFVQWLLDGGGGGSGGGGSGGGGSA[letters of human IgG4 Fc with S228P N297A (EU numbers) omitted] |
| – | – | – | 3.12 | 4.84 | C0382L1F6 (Fc fusion) HSQGTFTSDYSEYLDSERARDFVAWLEAGGGGGGSGGGGSGGGGSA[letters of human IgG4 Fc with S228P N297A (EU numbers) omitted] |
| 0.71 | – | – | – | – | F6L5M2 (Fc fusion) [letters of human IgG4 Fc with S228P N297A (EU numbers) omitted]GGGGAGGGGAGGGGAHPIPDSSPLLQFGGQVRQRYLYTDDAQQTEAHLEIREDGTVGGAADQSPESLLQLKALKPGVIQILGVKTSRFLCQRPDGALYGSLHFDPEACSFRERLLEDGYNVYQSEAHGLPLHCPGNKSPHRDPAPRGPCRFLPLPGLPPALPEPPGILAPQPPDVGSSDPLSMVGGSQGRSPSYES |

From patent US20220340635A1 (ZHEJIANG DOER BIOLOGICS, published 2022)
